Patent US10633448B2, “IGF-1R antibody-drug-conjugate and its use for the treatment of cancer” (PIERRE FABRE MEDICAMENT, priority 2014, dated 2020)

Assays:
[1] = target: T1, human IR (hIR) on hIR^+ transfected cell line (Homo sapiens, UniProt P06213); test: FACS on hIR^+ transfected cell line; type: binding; details: increasing concentrations
T1 construct: expressed in transfected cells; host or cells: NIH 3T3
Protocol: In order to verify the absence of binding of both murine and chimeric antibodies on hIR, a stable cell line expressing the human IR (hIR) was used. The recognition of human cell surface hIR by both murine and chimeric Ab was performed by FACS analyses. Increasing concentration of either the murine or the chimeric mAbs were incubated on the hIR^+ transfected cell line for 20 minutes at 4° C. in FACS buffer (PBS, 0.1% BSA, 0.01% NaN3). Cells were then washed 3 times and incubated with the appropriate secondary antibody coupled with Alexa 488 before being incubated for 20 additional minutes at 4° C. in the dark and then washed 3 times in FACS buffer. The binding of anti-IGF-1R antibodies was immediately performed on viable cells which were identified using propidium iodide (that stains dead cells). The binding EC50 expressed in molarity (M) was calculated using a nonlinear regression analysis (GraphPad Prims 4.0). The anti-hIR antibody clone GRO5 was used as positive controls. The murine and chimeric 9G4 antibodies were introduced as irrelevant antibodies.
The binding of the first humanized form of the c208F2 mAb was evaluated on MCF-7, COS-7 and NIH 3T3 IR^+ cell lines. Increasing concentrations of m208F2, c208F2 or hz208F2 VH3VL3 were added on each cell line for 20 min. at 4° C. […]

[2] = target: T2, soluble recombinant human IGF-1R (Homo sapiens, UniProt P08069); test: Biacore single cycle kinetics, around 600 RU captured h-IGF-1R; type: binding; details: mean of four experiments, read-out: dissociation constant KD
T2 construct: IGF-1R hetero-tetramere composed of 2a chains and the extracellular domains of 2β chains; purchased R&D Systems 305-GR-50
Protocol: The dissociation constants (KD) of the binding of the antibodies on a recombinant soluble human-IGF-1R were defined by the ratio between the dissociation rate (koff) and the association rate (kon). The kinetic experiments were run on a Biacore X100 device using a CM5 sensor chip activated by a mouse anti-Tag His monoclonal antibody. Around 12000 RU of antibodies are chemically grafted on the carboxymethyldextan matrix using the amine kit chemistry.
The experiments were carried out at 25° C. with a flow rate of 30 μl/min using the HBS-EP+ buffer (GE Healthcare) as the running and sample dilution buffer. […]
The resulting sensorgrams were analysed by the Biaevaluation software with a 1:1 model. […]
For the 6 antibodies tested in this experiment the experimental data fitted well with an 1:1 model with significant koff values when the higher concentration was defined as a constant and the other four concentrations are calculated (see FIG. 18).
The dissociation constants (KD) calculated as the ratio: koff/kon and the half-live of the complexes calculated as the ratio: Ln(2)/koff are represented in the FIGS. 19 and 20. […]

B1: hz208F2 H026/L024: first humanized form of the 208F2 anti-IGF-1R mAb (antibody)
heavy: QVQLVQSGAEVKKPGASVKMSCKASGYTFTSYYIYWVKQAPGQGLEWLGWIWPGDGSTKYNEKFQGRVTLTADKSSNTAYMFLSSLRSEDTAVYFCASPMITPNYAMDYWGQGTLVTVSSASTKGPSVFPLAPSSKSTSGGTAALGCLVKDYFPEPVTVSWNSGALTSGVHTFPAVLQSSGLYSLSSVVTVPSSSLGTQTYICNVNHKPSNTKVDKRV[human IgG1 Fc not written out]
light: DIQMTQSPSSLSASVGDRVTISCRASQDISKYLNWYQQKPGKAPKLLIYYTSRLHSGVPSRFSGRGSGTDYSLTISNLQPEDFATYFCQQGSTLPYTFGGGTKVEIKRTVAAPSVFIFPPSDEQLKSGTASVVCLLNNFYPREAKVQWKVDNALQSGNSQESVTEQDSKDSTYSLSSTLTLSKADYEKHKVYACEVTHQGLSSPVTKSFNRGEC
With B1 the “binding on cell surface of hIR^+ transfected cells” value [1] was “absence of cross reactivity on the human insulin receptor” and the Kd [2] was about 0.06 nM.
